Results published in PMC10458444 (Viruses, 2023).

Legend:
[1] = biological target: T1, SARS-CoV-2 S protein (Severe acute respiratory syndrome coronavirus 2, UniProt P0DTC2); experiment: biochemical; format: binding
[2] = biological target: T1, SARS-CoV-2 S protein; format: biochemical; conditions: recombinant S and CTSL, 37 °C 1 h, silver staining

SMILES	Kd [1]	effect on cleavage of S protein by CTSL protein [2]
CC(=O)c1ccc2c(c1)N(CCCN(C)C)c1ccccc1S2 [Acepromazine maleate, acepromazine maleate]	53.1 µM	prevented the cleavage of S protein by CTSL protein
CCCCCCCCCC(=O)OCCN1CCN(CCCN2c3ccccc3Sc3ccc(C(F)(F)F)cc32)CC1 [Fluphenazine decanoate, fluphenazine decanoate]	60.2 µM	prevented the cleavage of S protein by CTSL protein
OCCN1CCN(CCCN2c3ccccc3Sc3ccc(Cl)cc32)CC1 [Perphenazine, perphenazine]	979 µM	prevented the cleavage of S protein by CTSL protein
CC(CN(C)C)CN1c2ccccc2Sc2ccccc21 (centres unmarked) [Alimemazine hemitartrate, alimemazine hemitartrate]	435 µM	prevented the cleavage of S protein by CTSL protein

Structures can show the parent of a compound that is named as a salt.
